B1: AB200-(2Vk8)_R2-CDR2-hs-v2 (antibody)
heavy: QVQLVQSGAEVKKPGSSVKVSCKASGGSFSNYWIHWVRQAPGQGLEWMGGIIPIFGTANYAQKFQGRVTITADKSTSTAYMELSSLRSEDTAVYYCARGAIFHGYDVIDNWGQGTLVTVSSASTKGPSVFPLAPSSKSTSGGTAALGCLVKDYFPEPVTVSWNSGALTSGVHTFPAVLQSSGLYSLSSVVTVPSSSLGTQTYICNVNHKPSNTKVDKKVEPKSC
light: DIQMTQSPSSLSASVGDRVTITCRASQSISSYINWYQQKPGKAPKLLIYATSNLQIGVPSRFSGSGSGTDFTLTISSLQPEDFATYYCQQFRKLPWSFGQGTKLEIKRTVAAPSVFIFPPSDEQLKSGTASVVCLLNNFYPREAKVQWKVDNALQSGNSQESVTEQDSKDSTYSLSSTLTLSKADYEKHKVYACEVTHQGLSSPVTKSFNRGEC
B2: AB200-(2Vk31)_R2-VH-v57 (antibody)
heavy: QVQLVQSGAEVKKPGSSVKVSCKASGGTFSNYWIHWVRQAPGQGLEWMGGTYRIHSTTYYNQKFKSRVTITADESTSTAYMELSSLRSEDTAVYYCARGAVYHGYDVIDNWGQGTLVTVSSASTKGPSVFPLAPSSKSTSGGTAALGCLVKDYFPEPVTVSWNSGALTSGVHTFPAVLQSSGLYSLSSVVTVPSSSLGTQTYICNVNHKPSNTKVDKKVEPKSC
light: DIQMTQSPSSLSASVGDRVTITCRASQSISSYLNWYQQKPGKAPKLLIYATSNLQIGVPSRFSGSGSGTDFTLTISSLQPEDFATYYCQQFRRLPWTFGQGTKLEIKRTVAAPSVFIFPPSDEQLKSGTASVVCLLNNFYPREAKVQWKVDNALQSGNSQESVTEQDSKDSTYSLSSTLTLSKADYEKHKVYACEVTHQGLSSPVTKSFNRGEC
B3: AB200-(2Vk35)_R2-VH-v8 (antibody)
heavy: QVQLVQSGAEVKKPGSSVKVSCKASGGTYSNYWIHWVRQAPGQGLEWMGGTYRSQSDTYYNQKFKSRVTITADKSTSTAYMELSSLRSEDTAVYYCARGAIYHGFDVIDNWGQGTLVTVSSASTKGPSVFPLAPSSKSTSGGTAALGCLVKDYFPEPVTVSWNSGALTSGVHTFPAVLQSSGLYSLSSVVTVPSSSLGTQTYICNVNHKPSNTKVDKKVEPKSC
light: DIQMTQSPSSLSASVGDRVTITCRASQSISSYINWYQQKPGKAPKLLIYATSNLQSGVPSRFSGSGSGTDFTLTISSLQPEDFATYYCQQYRRIPWTFGQGTKLEIKRTVAAPSVFIFPPSDEQLKSGTASVVCLLNNFYPREAKVQWKVDNALQSGNSQESVTEQDSKDSTYSLSSTLTLSKADYEKHKVYACEVTHQGLSSPVTKSFNRGEC
B4: AB200-(2Vk35)_R2-VH-v46 (antibody)
heavy: QVQLVQSGAEVKKPGSSVKVSCKASGGTYSNYWIHWVRQAPGQGLEWMGATYRIQSDTNYNQKFKSRVTITADKSTSTAYMELSSLRSEDTAVYYCARGAIYHGYDVIENWGQGTLVTVSSASTKGPSVFPLAPSSKSTSGGTAALGCLVKDYFPEPVTVSWNSGALTSGVHTFPAVLQSSGLYSLSSVVTVPSSSLGTQTYICNVNHKPSNTKVDKKVEPKSC
light: DIQMTQSPSSLSASVGDRVTITCRASQSISSYINWYQQKPGKAPKLLIYATSNLQSGVPSRFSGSGSGTDFTLTISSLQPEDFATYYCQQYRRIPWTFGQGTKLEIKRTVAAPSVFIFPPSDEQLKSGTASVVCLLNNFYPREAKVQWKVDNALQSGNSQESVTEQDSKDSTYSLSSTLTLSKADYEKHKVYACEVTHQGLSSPVTKSFNRGEC
B5: AB200-(2Vk35)_R2-VH-v38 (antibody)
heavy: QVQLVQSGAEVKKPGSSVKVSCKASGGTFSNYWIHWVRQAPGQGLEWMGATYRSQSDTYYNEKFKSRVTITADKSTSTAYMELSSLRSEDTAVYYCARGAIYHGFDVIDNWGQGTLVTVSSASTKGPSVFPLAPSSKSTSGGTAALGCLVKDYFPEPVTVSWNSGALTSGVHTFPAVLQSSGLYSLSSVVTVPSSSLGTQTYICNVNHKPSNTKVDKKVEPKSC
light: DIQMTQSPSSLSASVGDRVTITCRASQSISSYINWYQQKPGKAPKLLIYATSNLQSGVPSRFSGSGSGTDFTLTISSLQPEDFATYYCQQYRRIPWTFGQGTKLEIKRTVAAPSVFIFPPSDEQLKSGTASVVCLLNNFYPREAKVQWKVDNALQSGNSQESVTEQDSKDSTYSLSSTLTLSKADYEKHKVYACEVTHQGLSSPVTKSFNRGEC
B6: AB200-(2Vk35)_R2-VH-v32 (antibody)
heavy: QVQLVQSGAEVKKPGSSVKVSCKASGGTFSNYWIHWVRQAPGQGLEWMGATYRSHSDTNYNQKYKSRVTITADKSTSTAYMELSSLRSEDTAVYYCARGAIFHGYDVIDNWGQGTLVTVSSASTKGPSVFPLAPSSKSTSGGTAALGCLVKDYFPEPVTVSWNSGALTSGVHTFPAVLQSSGLYSLSSVVTVPSSSLGTQTYICNVNHKPSNTKVDKKVEPKSC
light: DIQMTQSPSSLSASVGDRVTITCRASQSISSYINWYQQKPGKAPKLLIYATSNLQSGVPSRFSGSGSGTDFTLTISSLQPEDFATYYCQQYRRIPWTFGQGTKLEIKRTVAAPSVFIFPPSDEQLKSGTASVVCLLNNFYPREAKVQWKVDNALQSGNSQESVTEQDSKDSTYSLSSTLTLSKADYEKHKVYACEVTHQGLSSPVTKSFNRGEC
B7: AB200-(2Vk35)_R2-VH-v36 (antibody)
heavy: QVQLVQSGAEVKKPGSSVKVSCKASGGTFSNYWIHWVRQAPGQGLEWMGATYRSHSDTYYAEKFKSRVTITADKSTSTAYMELSSLRSEDTAVYYCARGAIFHGYDVIDNWGQGTLVTVSSASTKGPSVFPLAPSSKSTSGGTAALGCLVKDYFPEPVTVSWNSGALTSGVHTFPAVLQSSGLYSLSSVVTVPSSSLGTQTYICNVNHKPSNTKVDKKVEPKSC
light: DIQMTQSPSSLSASVGDRVTITCRASQSISSYINWYQQKPGKAPKLLIYATSNLQSGVPSRFSGSGSGTDFTLTISSLQPEDFATYYCQQYRRIPWTFGQGTKLEIKRTVAAPSVFIFPPSDEQLKSGTASVVCLLNNFYPREAKVQWKVDNALQSGNSQESVTEQDSKDSTYSLSSTLTLSKADYEKHKVYACEVTHQGLSSPVTKSFNRGEC
B8: AB200-(2Vk35)_R2-VH-v48 (antibody)
heavy: QVQLVQSGAEVKKPGSSVKVSCKASGGTYSNYWIHWVRQAPGQGLEWMGGTYRIHSTTYYNQKFKSRVTITADKSTSTAYMELSSLRSEDTAVYYCARGAIYHGFDVIDNWGQGTLVTVSSASTKGPSVFPLAPSSKSTSGGTAALGCLVKDYFPEPVTVSWNSGALTSGVHTFPAVLQSSGLYSLSSVVTVPSSSLGTQTYICNVNHKPSNTKVDKKVEPKSC
light: DIQMTQSPSSLSASVGDRVTITCRASQSISSYINWYQQKPGKAPKLLIYATSNLQSGVPSRFSGSGSGTDFTLTISSLQPEDFATYYCQQYRRIPWTFGQGTKLEIKRTVAAPSVFIFPPSDEQLKSGTASVVCLLNNFYPREAKVQWKVDNALQSGNSQESVTEQDSKDSTYSLSSTLTLSKADYEKHKVYACEVTHQGLSSPVTKSFNRGEC
B9: AB200-(2Vk35)_R2-VH-v26 (antibody)
heavy: QVQLVQSGAEVKKPGSSVKVSCKASGGTFSNYWIHWVRQAPGQGLEWMGATYRSHSTTYYAQKFKSRVTITADKSTSTAYMELSSLRSEDTAVYYCARGAIFHGYDVIDNWGQGTLVTVSSASTKGPSVFPLAPSSKSTSGGTAALGCLVKDYFPEPVTVSWNSGALTSGVHTFPAVLQSSGLYSLSSVVTVPSSSLGTQTYICNVNHKPSNTKVDKKVEPKSC
light: DIQMTQSPSSLSASVGDRVTITCRASQSISSYINWYQQKPGKAPKLLIYATSNLQSGVPSRFSGSGSGTDFTLTISSLQPEDFATYYCQQYRRIPWTFGQGTKLEIKRTVAAPSVFIFPPSDEQLKSGTASVVCLLNNFYPREAKVQWKVDNALQSGNSQESVTEQDSKDSTYSLSSTLTLSKADYEKHKVYACEVTHQGLSSPVTKSFNRGEC
B10: AB200-(2Vk35)_R2-VH-v11 (antibody)
heavy: QVQLVQSGAEVKKPGSSVKVSCKASGGTYSNYWIHWVRQAPGQGLEWMGATYRSHSDTNYNEKFKSRVTITADKSTSTAYMELSSLRSEDTAVYYCARGAVYHGYDVIDNWGQGTLVTVSSASTKGPSVFPLAPSSKSTSGGTAALGCLVKDYFPEPVTVSWNSGALTSGVHTFPAVLQSSGLYSLSSVVTVPSSSLGTQTYICNVNHKPSNTKVDKKVEPKSC
light: DIQMTQSPSSLSASVGDRVTITCRASQSISSYINWYQQKPGKAPKLLIYATSNLQSGVPSRFSGSGSGTDFTLTISSLQPEDFATYYCQQYRRIPWTFGQGTKLEIKRTVAAPSVFIFPPSDEQLKSGTASVVCLLNNFYPREAKVQWKVDNALQSGNSQESVTEQDSKDSTYSLSSTLTLSKADYEKHKVYACEVTHQGLSSPVTKSFNRGEC
B11: AB200-(2Vk35)_R2-VH-v15 (antibody)
heavy: QVQLVQSGAEVKKPGSSVKVSCKASGGSFSNYWIHWVRQAPGQGLEWMGATYRSQSTTYYNQKFKSRVTITADKSTSTAYMELSSLRSEDTAVYYCARGAIFHGYDVIDNWGQGTLVTVSSASTKGPSVFPLAPSSKSTSGGTAALGCLVKDYFPEPVTVSWNSGALTSGVHTFPAVLQSSGLYSLSSVVTVPSSSLGTQTYICNVNHKPSNTKVDKKVEPKSC
light: DIQMTQSPSSLSASVGDRVTITCRASQSISSYINWYQQKPGKAPKLLIYATSNLQSGVPSRFSGSGSGTDFTLTISSLQPEDFATYYCQQYRRIPWTFGQGTKLEIKRTVAAPSVFIFPPSDEQLKSGTASVVCLLNNFYPREAKVQWKVDNALQSGNSQESVTEQDSKDSTYSLSSTLTLSKADYEKHKVYACEVTHQGLSSPVTKSFNRGEC
B12: AB200-(2Vk35)_R2-VH-v9 (antibody)
heavy: QVQLVQSGAEVKKPGSSVKVSCKASGGTYSNYWIHWVRQAPGQGLEWMGATYRSQSDTNYNQKFKSRVTITADKSTSTAYMELSSLRSEDTAVYYCARGAIYHGFDVIDNWGQGTLVTVSSASTKGPSVFPLAPSSKSTSGGTAALGCLVKDYFPEPVTVSWNSGALTSGVHTFPAVLQSSGLYSLSSVVTVPSSSLGTQTYICNVNHKPSNTKVDKKVEPKSC
light: DIQMTQSPSSLSASVGDRVTITCRASQSISSYINWYQQKPGKAPKLLIYATSNLQSGVPSRFSGSGSGTDFTLTISSLQPEDFATYYCQQYRRIPWTFGQGTKLEIKRTVAAPSVFIFPPSDEQLKSGTASVVCLLNNFYPREAKVQWKVDNALQSGNSQESVTEQDSKDSTYSLSSTLTLSKADYEKHKVYACEVTHQGLSSPVTKSFNRGEC

Assay: ThermoFluor thermostability (Tm)
Format: physicochemical
Settings: Fab fragment; heavy chain clone paired with light chain AB200-(2Vk8)

Question: With B1 as the molecule, how does the Tm read?
Answer: 85.175 °C

Same assay, conditions: Fab fragment; heavy chain clone paired with light chain AB200-(2Vk31)

Question: For B2, which Tm is on record?
Answer: 85.597 °C

Same assay, conditions: Fab fragment; heavy chain clone paired with light chain AB200-(2Vk35)

Question: Which Tm does the source give for B3 here?
Answer: 78.223 °C

Question: For B4, which Tm is on record?
Answer: 76.222 °C

Question: With B5 as the molecule, how does the Tm read?
Answer: 81.457 °C

Question: Which Tm does the source give for B6 here?
Answer: 77.066 °C

Question: Which Tm does the source give for B7 here?
Answer: 78.599 °C

Question: For B8, which Tm is on record?
Answer: 78.848 °C

Question: For B9, which Tm is on record?
Answer: 78.816 °C

Question: For B10, which Tm is on record?
Answer: 77.406 °C

Question: For B11, which Tm is on record?
Answer: 80.901 °C

Question: With B12 as the molecule, how does the Tm read?
Answer: 76.997 °C
